This passage reports binding results from paper PMC4260354.

Results are given in words; binding and its absence hold for the method and conditions named. Binding seen in cells or lysates may run through a third protein. Where a sequence is shown, tags or fusion partners need not be part of it.

In experiment [1] the target is T1, SUVR2-Myc (Arabidopsis) (UniProt Q9FNC7).
T1 sequence: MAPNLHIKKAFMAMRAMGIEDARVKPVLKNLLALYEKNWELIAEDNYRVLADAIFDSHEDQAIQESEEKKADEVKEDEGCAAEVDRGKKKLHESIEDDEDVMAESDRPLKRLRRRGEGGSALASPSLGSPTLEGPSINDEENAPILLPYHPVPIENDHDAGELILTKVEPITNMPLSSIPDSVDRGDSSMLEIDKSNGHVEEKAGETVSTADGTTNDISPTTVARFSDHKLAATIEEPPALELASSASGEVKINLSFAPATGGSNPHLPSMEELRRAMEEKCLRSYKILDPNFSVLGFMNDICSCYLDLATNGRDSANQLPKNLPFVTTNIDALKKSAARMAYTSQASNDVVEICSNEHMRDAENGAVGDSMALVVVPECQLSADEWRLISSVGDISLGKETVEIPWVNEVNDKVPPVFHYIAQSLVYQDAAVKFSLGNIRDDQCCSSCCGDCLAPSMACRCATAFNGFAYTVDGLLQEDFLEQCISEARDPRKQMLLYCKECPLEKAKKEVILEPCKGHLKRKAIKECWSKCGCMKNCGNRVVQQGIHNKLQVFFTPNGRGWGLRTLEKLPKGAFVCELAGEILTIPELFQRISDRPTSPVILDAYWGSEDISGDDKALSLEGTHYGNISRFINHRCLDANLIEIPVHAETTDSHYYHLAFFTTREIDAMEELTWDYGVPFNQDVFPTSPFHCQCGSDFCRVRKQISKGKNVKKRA
Briefly: co-IP; protein extracts of Arabidopsis transgenic plants (or F1 hybrids with two tagged proteins); precipitated with anti-c-Myc agarose, anti-Flag M1 agarose or anti-AGO4 conjugated agarose; western blotting. Background: A western blot detects proteins with antibodies after separation by electrophoresis.

In experiment [2] the target is T1, SUVR2-Myc (Arabidopsis). Briefly: co-IP; protein extracts of Arabidopsis plants harboring two tagged proteins; anti-c-Myc agarose, anti-Flag M1 agarose or anti-AGO4 conjugated agarose; western blotting.
The target of experiment [3] is T2, AGO4 (Arabidopsis (endogenous in the SUVR2-Flag transgenic plants)) (UniProt Q9ZVD5).
T2 sequence: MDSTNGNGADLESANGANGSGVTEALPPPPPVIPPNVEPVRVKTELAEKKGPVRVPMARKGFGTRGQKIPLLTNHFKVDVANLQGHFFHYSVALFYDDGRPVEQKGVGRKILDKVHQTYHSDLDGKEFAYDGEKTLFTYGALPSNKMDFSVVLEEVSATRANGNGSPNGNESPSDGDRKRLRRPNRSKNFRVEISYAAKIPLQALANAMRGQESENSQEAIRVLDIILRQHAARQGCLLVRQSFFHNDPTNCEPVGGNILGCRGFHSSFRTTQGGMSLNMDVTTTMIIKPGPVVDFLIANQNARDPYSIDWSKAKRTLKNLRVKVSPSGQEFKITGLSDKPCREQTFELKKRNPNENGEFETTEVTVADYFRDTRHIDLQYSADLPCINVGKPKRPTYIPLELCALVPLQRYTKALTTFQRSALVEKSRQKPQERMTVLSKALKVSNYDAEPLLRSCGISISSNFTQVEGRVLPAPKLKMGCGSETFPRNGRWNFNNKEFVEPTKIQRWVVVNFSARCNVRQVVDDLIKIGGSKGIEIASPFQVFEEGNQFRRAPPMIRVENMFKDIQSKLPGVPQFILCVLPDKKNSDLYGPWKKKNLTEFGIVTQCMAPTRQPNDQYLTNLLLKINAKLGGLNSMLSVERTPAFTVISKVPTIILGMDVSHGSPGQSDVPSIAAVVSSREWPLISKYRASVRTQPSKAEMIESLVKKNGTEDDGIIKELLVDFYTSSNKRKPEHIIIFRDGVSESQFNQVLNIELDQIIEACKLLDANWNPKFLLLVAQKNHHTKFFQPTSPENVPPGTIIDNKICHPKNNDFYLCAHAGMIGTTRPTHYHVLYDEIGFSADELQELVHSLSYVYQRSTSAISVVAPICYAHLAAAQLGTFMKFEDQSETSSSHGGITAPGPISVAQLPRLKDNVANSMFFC
Kind of experiment: co-IP; protein extracts of Arabidopsis transgenic plants (or F1 hybrids with two tagged proteins); precipitated with anti-c-Myc agarose, anti-Flag M1 agarose or anti-AGO4 conjugated agarose; western blotting.

For the next experiment, the target named is T3, KTF1-Flag (Arabidopsis) (UniProt F4JW79).
T3 sequence: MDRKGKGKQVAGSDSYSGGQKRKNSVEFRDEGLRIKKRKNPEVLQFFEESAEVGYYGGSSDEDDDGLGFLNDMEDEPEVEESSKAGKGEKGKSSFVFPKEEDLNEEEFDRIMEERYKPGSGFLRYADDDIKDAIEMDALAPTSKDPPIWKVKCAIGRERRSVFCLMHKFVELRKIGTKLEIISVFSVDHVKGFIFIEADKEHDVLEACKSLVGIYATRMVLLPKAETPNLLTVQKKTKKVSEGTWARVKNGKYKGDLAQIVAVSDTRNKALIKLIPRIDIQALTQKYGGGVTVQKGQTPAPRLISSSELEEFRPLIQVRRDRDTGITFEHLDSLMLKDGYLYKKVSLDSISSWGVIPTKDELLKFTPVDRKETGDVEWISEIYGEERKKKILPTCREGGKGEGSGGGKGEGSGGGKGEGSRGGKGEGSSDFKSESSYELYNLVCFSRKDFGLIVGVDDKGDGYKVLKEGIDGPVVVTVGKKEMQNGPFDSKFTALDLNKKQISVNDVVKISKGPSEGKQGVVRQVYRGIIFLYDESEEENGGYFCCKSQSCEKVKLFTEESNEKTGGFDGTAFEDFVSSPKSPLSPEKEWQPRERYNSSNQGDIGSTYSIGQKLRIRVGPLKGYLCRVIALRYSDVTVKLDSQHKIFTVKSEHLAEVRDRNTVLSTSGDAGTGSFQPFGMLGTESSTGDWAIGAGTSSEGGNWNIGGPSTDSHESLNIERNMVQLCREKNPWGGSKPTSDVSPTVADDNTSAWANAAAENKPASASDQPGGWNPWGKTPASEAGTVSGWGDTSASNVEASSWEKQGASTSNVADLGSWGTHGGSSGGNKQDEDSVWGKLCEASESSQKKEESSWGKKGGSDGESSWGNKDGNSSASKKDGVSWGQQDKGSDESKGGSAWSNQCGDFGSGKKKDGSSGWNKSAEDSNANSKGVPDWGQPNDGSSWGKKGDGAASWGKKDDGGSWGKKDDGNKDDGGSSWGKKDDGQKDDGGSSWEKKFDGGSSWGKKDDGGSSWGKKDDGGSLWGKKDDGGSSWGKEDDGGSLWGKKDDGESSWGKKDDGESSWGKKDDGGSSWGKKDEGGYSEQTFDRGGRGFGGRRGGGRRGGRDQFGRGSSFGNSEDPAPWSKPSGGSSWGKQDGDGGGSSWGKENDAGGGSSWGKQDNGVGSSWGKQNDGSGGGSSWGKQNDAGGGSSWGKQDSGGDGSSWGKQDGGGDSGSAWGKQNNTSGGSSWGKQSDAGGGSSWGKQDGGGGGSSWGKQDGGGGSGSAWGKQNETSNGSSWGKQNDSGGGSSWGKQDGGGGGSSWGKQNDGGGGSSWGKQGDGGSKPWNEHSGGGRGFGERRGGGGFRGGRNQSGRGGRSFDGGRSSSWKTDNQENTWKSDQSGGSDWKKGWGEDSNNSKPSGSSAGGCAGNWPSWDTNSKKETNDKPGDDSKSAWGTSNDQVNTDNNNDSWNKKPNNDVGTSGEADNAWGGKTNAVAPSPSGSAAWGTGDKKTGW
The description is as above.

B1: DRM2-Flag (protein, UniProt Q9M548 1-626)
chain: MVIWNNDDDDFLEIDNFQSSPRSSPIHAMQCRVENLAGVAVTTSSLSSPTETTDLVQMGFSDEVFATLFDMGFPVEMISRAIKETGPNVETSVIIDTISKYSSDCEAGSSKSKAIDHFLAMGFDEEKVVKAIQEHGEDNMEAIANALLSCPEAKKLPAAVEEEDGIDWSSSDDDTNYTDMLNSDDEKDPNSNENGSKIRSLVKMGFSELEASLAVERCGENVDIAELTDFLCAAQMAREFSEFYTEHEEQKPRHNIKKRRFESKGEPRSSVDDEPIRLPNPMIGFGVPNEPGLITHRSLPELARGPPFFYYENVALTPKGVWETISRHLFEIPPEFVDSKYFCVAARKRGYIHNLPINNRFQIQPPPKYTIHDAFPLSKRWWPEWDKRTKLNCILTCTGSAQLTNRIRVALEPYNEEPEPPKHVQRYVIDQCKKWNLVWVGKNKAAPLEPDEMESILGFPKNHTRGGGMSRTERFKSLGNSFQVDTVAYHLSVLKPIFPHGINVLSLFTGIGGGEVALHRLQIKMKLVVSVEISKVNRNILKDFWEQTNQTGELIEFSDIQHLTNDTIEGLMEKYGGFDLVIGGSPCNNLAGGNRVSRVGLEGDQSSLFFEYCRILEVVRARMRGS
Consider B1, for which the binding entry in the experiment with SUVR2-Myc (Arabidopsis) [1] and with SUVR2-Myc (Arabidopsis) [2] was “no binding” in each case.

B2: SUVR2-Flag (protein, UniProt Q9FNC7 1-717)
chain: MAPNLHIKKAFMAMRAMGIEDARVKPVLKNLLALYEKNWELIAEDNYRVLADAIFDSHEDQAIQESEEKKADEVKEDEGCAAEVDRGKKKLHESIEDDEDVMAESDRPLKRLRRRGEGGSALASPSLGSPTLEGPSINDEENAPILLPYHPVPIENDHDAGELILTKVEPITNMPLSSIPDSVDRGDSSMLEIDKSNGHVEEKAGETVSTADGTTNDISPTTVARFSDHKLAATIEEPPALELASSASGEVKINLSFAPATGGSNPHLPSMEELRRAMEEKCLRSYKILDPNFSVLGFMNDICSCYLDLATNGRDSANQLPKNLPFVTTNIDALKKSAARMAYTSQASNDVVEICSNEHMRDAENGAVGDSMALVVVPECQLSADEWRLISSVGDISLGKETVEIPWVNEVNDKVPPVFHYIAQSLVYQDAAVKFSLGNIRDDQCCSSCCGDCLAPSMACRCATAFNGFAYTVDGLLQEDFLEQCISEARDPRKQMLLYCKECPLEKAKKEVILEPCKGHLKRKAIKECWSKCGCMKNCGNRVVQQGIHNKLQVFFTPNGRGWGLRTLEKLPKGAFVCELAGEILTIPELFQRISDRPTSPVILDAYWGSEDISGDDKALSLEGTHYGNISRFINHRCLDANLIEIPVHAETTDSHYYHLAFFTTREIDAMEELTWDYGVPFNQDVFPTSPFHCQCGSDFCRVRKQISKGKNVKKRA
Consider B2, for which the binding result in experiment [3] is “no binding”.

B3: SUVR2-Myc (protein, UniProt Q9FNC7 1-717)
chain: MAPNLHIKKAFMAMRAMGIEDARVKPVLKNLLALYEKNWELIAEDNYRVLADAIFDSHEDQAIQESEEKKADEVKEDEGCAAEVDRGKKKLHESIEDDEDVMAESDRPLKRLRRRGEGGSALASPSLGSPTLEGPSINDEENAPILLPYHPVPIENDHDAGELILTKVEPITNMPLSSIPDSVDRGDSSMLEIDKSNGHVEEKAGETVSTADGTTNDISPTTVARFSDHKLAATIEEPPALELASSASGEVKINLSFAPATGGSNPHLPSMEELRRAMEEKCLRSYKILDPNFSVLGFMNDICSCYLDLATNGRDSANQLPKNLPFVTTNIDALKKSAARMAYTSQASNDVVEICSNEHMRDAENGAVGDSMALVVVPECQLSADEWRLISSVGDISLGKETVEIPWVNEVNDKVPPVFHYIAQSLVYQDAAVKFSLGNIRDDQCCSSCCGDCLAPSMACRCATAFNGFAYTVDGLLQEDFLEQCISEARDPRKQMLLYCKECPLEKAKKEVILEPCKGHLKRKAIKECWSKCGCMKNCGNRVVQQGIHNKLQVFFTPNGRGWGLRTLEKLPKGAFVCELAGEILTIPELFQRISDRPTSPVILDAYWGSEDISGDDKALSLEGTHYGNISRFINHRCLDANLIEIPVHAETTDSHYYHLAFFTTREIDAMEELTWDYGVPFNQDVFPTSPFHCQCGSDFCRVRKQISKGKNVKKRA
For the molecule B3, the binding entry with KTF1-Flag (Arabidopsis) is reported as “no binding”.
